Assay results from the RNAGym collection of RNA variant scans (doi:10.7554/elife.90254).
The source gives no read counts; variants with many changes may rest on few reads.

B1: LINE1-full (parent)
chain: UACGUAGGUGGUUUUCCCCUGAUAGUGCUAAGGGGGCCUGGAAGUUUGGACUGGGCAGAGCUCAACACAGCGUGGCAAAGUGGCUGUGGCUAGACUGCCUCUCUGGAUUCCUCGUCACUCAGCAGGGCAUCUCUGAGAGAAAUGCC

Variants of: B1
Assay: self-cleavage, relative activity (ratio to wild type); higher = more cleavage; in vitro, sequencing; the parent is a self-cleaving ribozyme

| Variant | self-cleavage |
| --- | --- |
| G33U A64G C146U | 0.12 |
| G34A G48A A78G U108C | 1.67 |
| G34C U81A U109C A124G | 1.31 |
| G32U G60U A77C | 0 |
| G33C A65U U119C | 0 |
| G32A U47C A78G | 1.47 |
| G35C U46C U96C U130C A142G | 0 |
| A31G U73A C98U | 0.17 |
| A31U G114A C120U A141G | 0.59 |
| G35A U39A U47A A94G U134C A141G | 0.22 |
| C37A A50G A65U U115A | 0.1 |
| G36U A42G U115A | 1.44 |
| G33A G36A U47C A140G | 1.1 |
| G33A U52C U85C A94U G105U | 0.08 |
| C37G A42G U108C | 1.5 |
| G33A G44A A79G C145U | 1.42 |
| G32C G54A A57U U62C | 0.05 |
| G36A A43G U109C U130C | 2.83 |
| G34U A50U A57U A77G A107U | 0.07 |
| A31G U109A U143A | 1.45 |
| A31G G35C C37A A138G A140G | 1.34 |
| A31U A67U A142G U143C | 0.07 |
| G34A A59G A77U U104A | 0.06 |
| G33A A67G C68U | 0.09 |

| Variant | self-cleavage |
| --- | --- |
| C37A A64G A67U A69C | 0.03 |
| G34A U47A U96C | 0.09 |
| G33A G74A U115A | 1.25 |
| G32A A69G U112C A121G | 0.42 |
| G34A U91C U96C U104C | 0.28 |
| A31G A42G U47C | 0.63 |
| G32C A77G A92U | 0.92 |
| A31G C71U A141G | 0.15 |
| G35U U52C G86U | 0.05 |
| G34A G72A U85C C95U U130A | 0.02 |
| G32A U81A C90A U96A U119C | 0.06 |
| G34U U96A A141G | 0.06 |
| G34A A59U G74A U115A | 0.56 |
| A31U A78G U134C | 0.63 |
| G33A A59G U104C | 0.07 |
| G33A A50G U62C U102C | 0 |
| G33A A43U U109C G125U | 1.43 |
| G32A U96A U104C U115C A140C | 0.2 |
| G35U U46G A117G | 0.29 |
| A31C G75A U132C | 0.81 |
| A31U A65G U81A U143A | 0.06 |
| G33U U45A U47A | 1.31 |
| G33A U73A A78G C99A U112C U115C | 0.24 |
| A31G A43G U62A U108C | 0 |

| Variant | self-cleavage |
| --- | --- |
| G35A U39A A141G | 1.03 |
| G34U C99U U100C U104A | 1.05 |
| G35A A94U U109A | 0.18 |
| A31G A50G G105A | 0.8 |
| G32A U47A U112C | 0.67 |
| G34A U52A A64G A67U C128A | 0.03 |
| G32A U96A A136G | 0.04 |
| G32A C38U C68U U102A A124G | 0.14 |
| A31G C128U A129U | 2.14 |
| G36C U130C A141U | 0.99 |
| G32C U47C G97A | 0.3 |
| A31U U119C A136G A140G | 1.68 |
| G33A A78G U108C U115C A124U | 1.15 |
| G36C U52C G60C A64G A67U U96A U104C U130C | 0 |
| G34A A69U U91C A142G | 0.06 |
| A31G A42G C76U A124G | 1.31 |
| G36C U62C A124G | 0 |
| G34A U62A A64G U109C A129G | 0.14 |
| C37A C95U A124G | 0.08 |
| G36U G48A G49U | 1.84 |
| A31G U85A A136U | 0 |
| G33A C37U A43U A77G U102A G126A A141G | 2.23 |
| G32U A78U U108C U134C A141G | 2.75 |
| G35U A65G U96A | 0.02 |

| Variant | self-cleavage |
| --- | --- |
| A31U U96C U143A | 0.16 |
| A31U A65G U87A A107G | 0.17 |
| G32C A50G G55U | 0.08 |
| G36A A140G A141G | 1.63 |
| G34A U73A U104A | 1.42 |
| G36C A65G A117G A140G | 0 |
| G36A A78G U102C A142G | 0.79 |
| G35A A57U U109C A142G | 0.06 |
| G36A U45C C76U | 2.34 |
| G36A U46C U87C | 0.06 |
| G32A U39C U132C | 1.05 |
| G33A A64G A77G | 0.35 |
| G32A A78G U104A | 1.25 |
| G32C A94G U132A | 0.51 |
| G32A U47A U85C A107U | 0.1 |
| G34C G53A G60A | 0.04 |
| A31U U45A U81C U87C | 0 |
| G35U U73C U87C G144A | 0.32 |
| A31G A43G A78G C90U | 0.04 |
| A31U U39C U85C | 0.62 |
| A31G G55C A69G | 0 |
| A31U A42G U91C | 1.6 |
| C37G A57G G82A A94U U96A | 0.04 |
| A31U A117G A136G A140U | 2.36 |

| Variant | self-cleavage |
| --- | --- |
| A31G A107G G127C | 0.82 |
| G32A A59U A64U U85C C90U A136G | 0.04 |
| G36U U47C G106U U132A A136G | 1.3 |
| G33A A50G U115C A141G | 1.15 |
| G32U A67G G75A | 0.28 |
| A31G U39C G82A | 2.1 |
| G34A A94G U102C U104A A117G | 0.54 |
| A31U G70A U87A | 0.05 |
| G33A C61U A64C A67U | 0.08 |
| G35A U45A U46A | 0.76 |
| G33A U108C U115A | 1.66 |
| G34A U102A A141G | 1.14 |
| G35A G36A U45C U62C A138G | 0.02 |
| A31U G34C A92G U134A | 0.3 |
| G32C U45A U115C | 1.69 |
| G34A G49A U102A | 0.15 |
| G32A A78G C128U U130G A140G | 1.21 |
| G35U A43U A107G | 1.19 |
| A31U G36A A59G U104A U112C | 0.03 |
| G36C A50U U81A | 1.46 |
| A31G A64G G82A A138G | 0.73 |
| G33U U85C C113U A117G | 0 |
| G36C A59U A69U | 0.03 |
| G32U A92G A129U | 0.07 |

| Variant | self-cleavage |
| --- | --- |
| A31U G89U A121C | 0.02 |
| G32C G34A C61U A117G | 0.09 |
| A31G C51U U73A U112A | 0.36 |
| C37A G55U U73A | 0.1 |
| A31U U45A C145U | 1.3 |
| G34U A59U A77G A121U | 1.57 |
| A31U A59U A67G C116U | 0.34 |
| A31G U102C U109C | 1.53 |
| A31G C38U G55U U73C | 0.39 |
| G34U G53U A79G A121C A136U A141G | 1.18 |
| A31G A43G G82A U100C | 2.97 |
| G35U A42G A65U A94U A136G | 0.04 |
| A31G U46A U85C A129U | 0.22 |
| G34A U52A U100A | 1.1 |
| A31G G32C A117G | 0.71 |
| A31G G33A U52A A64C U102C | 0.23 |
| A31U A65G A136G | 0 |
| A31U G48A U100C C116U G125U | 1.81 |
| G32A A43G A78U U81A | 2.46 |
| G33C U47A U104G A136G | 1.58 |
| G35A U112C U143C | 0.85 |
| A31C A77U A107C G127A U134C A140G | 1.8 |
| A31U U45C U115C A138U A140G | 0.92 |
| A31G A79U G125A | 2.11 |

| Variant | self-cleavage |
| --- | --- |
| G36A A57G U62C A64G U130C | 0 |
| G34U A79U U96C U100C U102C A138G | 0.09 |
| A31G U85C A121U | 0.3 |
| G34A U73C A79G | 1.75 |
| A31U A50G A59G A64U | 0 |
| G33U A43C U47C | 1.72 |
| G35A A94G A107G | 0 |
| A31G A138U A141G | 0.56 |
| A31U A42G A79G U87C | 1.53 |
| G32U U102C U115C A124U | 1.9 |
| A31G A43G G88U U112A A136U A138U | 0.08 |
| G32U A42G A65U A77G U108C | 1.02 |
| A31U U81C U96C | 0.25 |
| G32A A94G U96A G122C | 0.03 |
| A31U A57U U108A | 0.11 |
| A31U A42G A67G | 0.44 |
| A31G A43U A57G U119C A141G | 1.67 |
| G36A G106U A117G U132C | 1.2 |
| G32U U81C G88A U100C | 0.04 |
| G34A U47C U73C U112C U130A | 2.72 |
| G33U G114A U143A | 1.03 |
| A31U A57U U96A A141G | 0.5 |
| G32A U62C A69G | 0.28 |
